Data: ChEMBL document CHEMBL4888484, “Replenishing the malaria drug discovery pipeline: Screening and hit evaluation of the MMV Hit Generation Library 1 (HGL1) against asexual blood stage Plasmodium falciparum ,using a nano luciferase reporter read-out” (2022)
Where “and” joins values, the source holds several entries; their conditions need not be identical. Identical values can stand only once. In all, about 150,000 compounds went through this assay and about 540 (0.36%) showed an effect of 50% or more. This is one part of the list.

System: Plasmodium falciparum
Assay: Primary screen in NF54 nanoGlo assay, in single point, at 2uM, 72h; a lower Z score goes with more inhibition
Format: functional, Erythrocyte
Conditions: timepoint 72 hour

| SMILES | % Inhibition [%] | Z score | % Inhibition (2 µM) |
| --- | --- | --- | --- |
| O=C1C2C(c3ccccc3)NC3(C(=O)Nc4ccccc43)C2C(=O)N1c1ccc(Cl)cc1 (centres undefined) | 33 | -3.75 |  |
| Cc1ccc(-n2nc(-c3noc(C(=O)NCCCN4CCC[C@H](C)C4)n3)c(=O)n(C)c2=O)cc1 | 9 | -1.58 |  |
| CC(=O)N1CCC([C@@H]2CN(C(=O)c3cccs3)C[C@H]2CO)CC1 | 0 | -0.02 |  |
| COc1ccc(-c2noc(-c3cn(Cc4ccc(NC(=O)c5ccccc5C)cc4)cn3)n2)cc1 | -6 | 0.81 |  |
| NC(=O)C1CCCC1NC(=O)CCCn1ccc2cc(Cl)ccc21 (centres undefined) | -7 | 0.97 |  |
| CC(C)(Cc1ccccc1)NS(C)(=O)=O | 1 | -0.1 |  |
| CC1=NO[C@](C)(C(=O)NCc2cccnc2-n2cnc3ccccc32)C1 | -7 | 0.69 |  |
| O=C(CS(=O)(=O)c1ccc2c(c1)S(=O)(=O)N=CN2)Nc1ccccc1C(F)(F)F | 6 | -0.84 |  |
| OC(COCC1CC2CCC1C2)Cn1cnc2ccccc21 (centres undefined) |  |  | -7% and 3% |
| COc1ccc(C2(CNC(=O)c3ccc4c(c3)OCO4)CCOCC2)cc1OC | -8 | 0.96 |  |
| CCNc1ccc(Br)cc1NC(=O)[C@@H]1CNC(=O)C1 | -11 | 1.29 |  |
| Cc1nc(-c2cccs2)sc1C(=O)Nc1nnc(C(F)(F)F)[nH]1 | -2 | 0.3 |  |
| Cn1c(CCNC(=O)NC2CC3CCC2O3)nc2cc(Cl)ccc21 (centres undefined) | -16 | 1.31 |  |
| O=C(c1cccc2ccccc12)N1CC(N2C(=O)CNC2=O)C1 | -4 | 0.84 |  |
| Cc1cc(OC(F)F)ccc1NC(=O)c1cc(-c2cnn(C)c2)nc2onc(C)c12 | 31 | -3.56 |  |
| COc1cc(OC)c(NC(=O)NCCn2c(-c3ccc(C)cc3)nc3ccccc32)cc1Cl | -10 | 1.33 |  |
| CC(CC1CCOC1)Nc1ccncc1C(N)=O (centres undefined) | -12 | 1.26 |  |
| CC1CCN(c2nc3c(c(Oc4ccc(F)cc4)n2)CN(C(=O)c2ccccc2Cl)CC3)CC1 | -12 | 1.96 |  |
| Cc1ccc(-c2ncc(CN(C)CCc3nccs3)s2)o1 | 1 | -0.11 |  |
| Cn1nc(CC2CCN(c3cc(N)ncn3)CC2)n(-c2ccccc2)c1=O | -2 | 0.27 |  |
| Cc1cc(O)nc(CN2CC(C)CC(C)C2)n1 (centres undefined) | 34 | -4.43 |  |
| CC1CN(C(=O)c2ccc(Cn3cncn3)cc2)C(C)CO1 (centres undefined) | 10 | -1.56 |  |

| SMILES | % Inhibition [%] | Z score | % Inhibition (2 µM) |
| --- | --- | --- | --- |
| Cc1ncccc1C(=O)Nc1cnccn1 | -7 | 0.92 |  |
| CCCCNC(=O)C1=CN(CCc2ccccc2)S(=O)(=O)N=C1C | -10 | 1.29 |  |
| O=C(O)[C@H](Cc1c[nH]c2ccccc12)n1cc(-c2nccs2)nn1 | 8 | -1.1 |  |
| NC1CCC(C(=O)NCC2(c3ccccc3Cl)CCOCC2)C1 (centres undefined) | 8 | -1.21 |  |
| CC(C)[C@H](Oc1ccccc1Br)C(=O)Nc1nnc(C2CC2)s1 | -6 | 1.18 |  |
| Cc1ccc(CNC(=O)C(=O)Nc2cnc3ccccc3c2)c(C)c1 | 6 | -0.81 |  |
| O=C1N(CC2CC2)CCC[C@@]1(O)CN1CCC(Cc2ccccc2)CC1 | -16 | 1.41 |  |
| COc1ccc(C)cc1S(=O)(=O)N1CCc2cc3ccccc3nc21 | -11 | 1.26 |  |
| Cc1cc(CNc2nc(C)ccc2C(N)=O)ccn1 | -5 | 0.99 |  |
| COc1ccc(CC(=O)N[C@H]2CCOC2)cc1OC | -1 | 0.14 |  |
| Cc1csc([C@H](C)N(C)Cc2nc(-c3ccsc3)oc2C)n1 | 8 | -1.55 |  |
| NC(=O)Cc1nc(C[C@H]2CCc3ccccc32)n(CC(F)(F)F)n1 | 5 | -0.65 |  |
| O=C(Nc1ccncc1F)N[C@H]1CCCOCC1 | -4 | 0.82 |  |
| CC(C)CN1CCCn2nc(CNc3noc(-c4ccccc4)n3)cc2C1 | -4 | 0.4 |  |
| CNC(=O)NC(=O)CNC(C)C(C)c1ccccc1C(F)(F)F (centres undefined) | -10 | 1.35 |  |
| Cc1nc(C(=O)N[C@H]2CCS(=O)(=O)C2)c(-c2ccccc2)s1 | -1 | 0.05 |  |
| CCN(C)[C@H]1CCN(C(=O)c2scc(C)c2Cl)C1 | -2 | 0.47 |  |
| CC[C@H](OC)C(=O)N(C)Cc1cscn1 | -10 | 1.87 |  |
| O=C(NS(=O)(=O)Cc1ccccc1)c1cccc(-c2ncn[nH]2)c1 | -11 | 1.43 |  |
| CN(C)c1ccc(C2OCC3(CCC4(COC(c5ccc(N(C)C)cc5)OC4)C3=O)CO2)cc1 (centres undefined) | 2 | -0.28 |  |
| Cc1cccc(N(C)S(=O)(=O)c2c(C)sc(C)c2-c2ccno2)c1 | -14 | 2.36 |  |
| C[C@H](O)c1ncc(CNc2ccc(Br)cc2CO)s1 | -10 | 1.74 |  |

| SMILES | % Inhibition [%] | Z score | % Inhibition (2 µM) |
| --- | --- | --- | --- |
| Cc1cccc(CCNC(=O)CC[C@H](C)N2CCOCC2)n1 | -2 | 0.29 |  |
| CN1CCCC(COC(=O)Cc2ccc(OCC#N)cc2)C1c1ccc(C(F)(F)F)cc1 (centres undefined) | -8 | 1.2 |  |
| CC(C)NC(=O)c1nnc2n1CCCC2 | -16 | 3.12 |  |
| Cc1ccnc(NC(=O)c2ccc(S(=O)(=O)c3ccccc3)cc2)c1 | -4 | 0.46 |  |
| O=C(c1ccc(-c2cccc(Cl)c2Cl)o1)N1CCC1 | -14 | 1.69 |  |
| CCn1nccc1S(=O)(=O)N(C)c1ccc(Br)cc1C | -3 | 0.27 |  |
| COc1ncnc(OC)c1C(=O)NC[C@@H](CO)c1cccnc1 | 4 | -0.56 |  |
| Cc1noc(C)c1CNC(=O)[C@@H]1CCCCN1CC(C)C | -13 | 1.72 |  |
| O[C@H]1CN(Cc2ccc(C#Cc3cncnc3)cc2)CC[C@@H]1N1CCOCC1 | -5 | 0.67 |  |
| O=C(O)c1ccc(CN2CCC[C@H]2Cn2ccnn2)c(Br)c1 | 4 | -0.82 |  |
| CC(C)c1nnc([C@H](C)NC(=O)c2cn[nH]c2)o1 | -15 | 1.9 |  |
| CCn1c(C)nc2cc(NS(=O)(=O)c3ccccc3)cc(C(=O)NCc3cccc(F)c3)c21 | -5 | 0.71 |  |
| COC1CCN(C[C@]2(O)CCCN(CCC3CCCCC3)C2=O)CC1 | 5 | -0.66 |  |
| CC[C@@H](CC#N)NC(=O)c1ccc(O)cc1C | -10 | 1.42 |  |
| N#C[C@@H](C(=O)COc1cc(F)ccc1F)c1nc2ccccc2s1 | -6 | 1.11 |  |
| Cc1[nH]ccc1C(=O)N1CCCC2CCCC21 (centres undefined) | 30 | -3.45 |  |
| CC(C)n1c(=O)n(CC(=O)N[C@@H](C)CCc2ccccc2)c2cc(S(=O)(=O)N3CCCC3)ccc21 | -9 | 1.12 |  |
| CC[C@@H](C(=O)OC)N1CCc2onc(-c3cccc4ccccc34)c2C1 | -11 | 1.3 |  |
| Cc1csc(CNC(=O)NC2CCC(O)CC2)n1 (centres undefined) | -13 | 1.82 |  |
| Cc1ccc([C@H]2CN(C(=O)CCc3ccc4c(c3)OCO4)C[C@@H]2N)o1 | -19 | 2.65 |  |
| Brc1cc2c(cc1Cn1cc(-c3cnn(Cc4cc5c(cc4Br)OCO5)c3)cn1)OCO2 | 1 | -0.21 |  |
| CC(C)(O)CN(Cc1cc(Cl)c2c(c1)OCCO2)C1CCOCC1 | -5 | 0.82 |  |

| SMILES | % Inhibition [%] | Z score | % Inhibition (2 µM) |
| --- | --- | --- | --- |
| CC1(C(=O)O)CCN(C2CCc3ccc(F)cc32)C1 (centres undefined) | -42 | 4.98 |  |
| CCn1ccnc1CN(Cc1ccccc1OC)C1CCCC1 | 5 | -0.91 |  |
| Cc1c(CNC2CCOC(C)C2)n(C)c2ccccc12 (centres undefined) | -11 | 1.54 |  |
| CC1(C)C[C@@H](NC(=O)c2cc3[nH]cnc3cc2F)CCO1 | 31 | -4.43 |  |
| Cc1cnc(C2CN(C(=O)C3CCCC3)C2)n1CC1CC1 | -12 | 1.6 |  |
| O=C1CN(C(=O)c2ccc(-c3ccccc3F)o2)c2ccccc2N1 | 31 | -4.11 |  |
| Fc1ccccc1-c1cnnc(N2CC[C@H](c3cccc(Cl)c3)C2)n1 | -5 | 0.66 |  |
| CCc1ncsc1C(=O)N(C)[C@@H]1CCC[C@H]1O | 31 | -4.43 |  |
| CC[C@H]1C[C@@H](NC(=O)c2ccccc2)C[C@@H](c2ccc3nonc3c2)O1 | -10 | 1.77 |  |
| CCNC(=O)NCCc1ncc(C)n1C1CC1 | -5 | 0.87 |  |
| O=C(C1CC(=O)N(C2CCS(=O)(=O)C2)C1)N(Cc1ccccc1)Cc1ccccc1 (centres undefined) | 1 | -0.06 |  |
| CCNc1nc(C)c(C(=O)NCc2ccc3c(c2)CC(C)(C)O3)s1 | -17 | 2.82 |  |
| Cc1cc(C)c(NC(=O)[C@@H]2CCCN2S(=O)(=O)c2cc3c(cc2C)NC(=O)CO3)c(C)c1 | -10 | 1.98 |  |
| CCCn1cnnc1CN(C)[C@@H](C)C(=O)NC1CCCC1 | -3 | 0.51 |  |
| C[C@H](N)COc1ccc(C(C)(C)C)cc1 | 6 | -1.21 |  |
| Cc1cc(C)c(S(=O)(=O)N2CCCC(C(=O)NCC3CCCO3)C2)c(C)c1 (centres undefined) | -41 | 4.75 |  |
| CC1(C)C[C@@H](O)CCN(S(=O)(=O)CC2CC2)C1 | -6 | 0.65 |  |
| COCCN1C(=O)[C@H]2[C@H]([C@H](O)c3ccc(Cl)cc3)N[C@@]3(C(=O)Nc4ccccc43)[C@H]2C1=O | 11 | -1.8 |  |
| CC(C)(C)OC(=O)N1CCC(Cn2nccc2N)CC1 | 30 | -4.31 |  |
